B1: glmS ribozyme (parent)
chain: AUAAAAGCGCCAGAACUACAGAAAUGUAGUUGACGAGGAGGAGGUUUAUCGAAUUUUCGGCGGAUGCCUCCAAA

± gives the standard error. Variants at the background level are over-represented here.

Conditions in all cases: with glucosamine-6-phosphate
Data set [1] covers variants of B1. Put plainly: self-cleavage kobs at 160 uM GlcN6P; higher = faster cleavage; RNA array. In a few lines: (§1)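 E. coli RNA polymerase transcribed barcoded ribozyme variants in situ on sequenced MiSeq chips, which were tracked via a hybridised Cy3 probe at 37 °C. Tiles were imaged over ~14 h after glucosamine-6-phosphate (40 μM to 10 mM) in HEPES/KCl/Mg(OAc)2 buffer was flowed in. Normalised per-tile medians were fit to one- or two-exponential decays for kobs, and kcat and KM came from weighted Michaelis–Menten fits.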

The variants in data set [2] derive from B1. Put plainly: self-cleavage kobs at 2500 uM GlcN6P; higher = faster cleavage; RNA array. In a few lines:
as §1

Data set [3] covers variants of B1. In words: self-cleavage kobs at 10000 uM GlcN6P; higher = faster cleavage; RNA array. Put shortly: as §1

Turning to AUAAAAGCGCCGGAACUACAGAAAUGUAGUUGACGAGGAGGAGGUUUACCGAAUUUUCGGCGGAUGGCUCCAAA, in the data set with glucosamine-6-phosphate [1], the “self-cleavage kobs at 160 uM GlcN6P” value was < 1e-05 s⁻¹. Consider AUAAAAGCGCAAGAACUACAGAAAUGUAGUUGACGAGGAGGUGGUUUAUCGAAUUUUUGGCGGAUGCGUCCAAA, for which, in the data set with glucosamine-6-phosphate [1], the “self-cleavage kobs at 160 uM GlcN6P” value is < 1e-05 s⁻¹. Also, the “self-cleavage kobs at 2500 uM GlcN6P” value in the data set with glucosamine-6-phosphate [2] is < 1e-05 s⁻¹.

For AUAAAAGCGACAGAACUACAGAAAUGUAGUUGACAAGGAGGAGGUUUAUCGAAUUUUCGGCGGAUGCCUCCAAA, the “self-cleavage kobs at 160 uM GlcN6P” value in the data set with glucosamine-6-phosphate [1] was < 1e-05 s⁻¹. The “self-cleavage kobs at 2500 uM GlcN6P” value with glucosamine-6-phosphate [2] is < 1e-05 s⁻¹. For the same variant, the “self-cleavage kobs at 10000 uM GlcN6P” value with glucosamine-6-phosphate [3] was < 1e-05 s⁻¹. On to AUAAAAGCGACAUAACUACAGAAAUGUAGUUGACGAGGAGGAGGUUUAUCGGAUUCUCGGCGGAUCCCUCCAAA, for which the “self-cleavage kobs at 160 uM GlcN6P” value with glucosamine-6-phosphate [1] was < 1e-05 s⁻¹. In addition, the “self-cleavage kobs at 2500 uM GlcN6P” value with glucosamine-6-phosphate [2] was < 1e-05 s⁻¹. With AUAAAAGCGGAAGAAAUACAGAAAUGUAGUUGACGAGGAGGAGGUUUAUCGAAUUUUCAGCGGAUGCCUCCAAA, the “self-cleavage kobs at 160 uM GlcN6P” value with glucosamine-6-phosphate [1] is < 1e-05 s⁻¹. The “self-cleavage kobs at 2500 uM GlcN6P” value with glucosamine-6-phosphate [2] was < 1e-05 s⁻¹. For the variant AUAAAAGCGCCAAAACUACAGAAAUGUAGUUGACGAGGAGGACGUUUAUCGAAUUUUCGGCGGAUACCUCCAAA, the “self-cleavage kobs at 160 uM GlcN6P” value with glucosamine-6-phosphate [1] was < 1e-05 s⁻¹. The “self-cleavage kobs at 2500 uM GlcN6P” value with glucosamine-6-phosphate [2] was < 1e-05 s⁻¹. Also, in the data set with glucosamine-6-phosphate [3], the “self-cleavage kobs at 10000 uM GlcN6P” value is < 1e-05 s⁻¹. For AUAAAAGCGUCAGAACUACAGAAAUGUAGUUGACGAGGAGGGGGUUUAUCGAUUUUUCGGCGGAUGCCUCCAAA, in the data set with glucosamine-6-phosphate [1], the “self-cleavage kobs at 160 uM GlcN6P” value was < 1e-05 s⁻¹. On to AUAAAAGCGGCAGAACUACAGAAAUGUAGUUUACGAGGAGGAGGUUUAUCGAAGUUUCGGCGGAUGCAUCCAAA, for which the “self-cleavage kobs at 160 uM GlcN6P” value in the data set with glucosamine-6-phosphate [1] worked out at 5.61e-05 ± 2.2e-05 s⁻¹.

Turning to AUAAAAGCGCCAGAGCUACAGAAAUGUAGUUGACGAGGGGGAGGUUUAUCUAAGUUUCGGCGGAUGCCUCCAAA, in the data set with glucosamine-6-phosphate [1], the “self-cleavage kobs at 160 uM GlcN6P” value is < 1e-05 s⁻¹. Moreover, the “self-cleavage kobs at 2500 uM GlcN6P” value with glucosamine-6-phosphate [2] is < 1e-05 s⁻¹. Consider AUAAAAGCGUCAGAACUACAGAAAUGUAGUUGACGAGGAGGAGGUUUAUCGAAUUUUCGGCAGAGGCCUCCAAA, for which the “self-cleavage kobs at 160 uM GlcN6P” value with glucosamine-6-phosphate [1] was < 1e-05 s⁻¹. In addition, the “self-cleavage kobs at 2500 uM GlcN6P” value with glucosamine-6-phosphate [2] was < 1e-05 s⁻¹. AUAAAAGCGCAAGAACUACAGAAAUGUAGUUGAUGAGGAGGAGGUUUAUCGAAUUUUCGUCGGAUGCCUCAAAA: the “self-cleavage kobs at 160 uM GlcN6P” value in the data set with glucosamine-6-phosphate [1] was < 1e-05 s⁻¹. The “self-cleavage kobs at 2500 uM GlcN6P” value with glucosamine-6-phosphate [2] is < 1e-05 s⁻¹. Regarding AUAAAAGCGACAAAACUACAGAAAUGUAGUUGACGAGGAGGAGGUUUAUCGACUUUUCGGCGGAUGCCCCCAAA, the “self-cleavage kobs at 160 uM GlcN6P” value with glucosamine-6-phosphate [1] was < 1e-05 s⁻¹. Regarding AUAAAAGCGCCAGACCUACAGAAAUGUAGUUGACGGGUAGGAGGUUUAUCGAAUUUUCGGCGGAUGCCUCCAAA, the “self-cleavage kobs at 160 uM GlcN6P” value with glucosamine-6-phosphate [1] was < 1e-05 s⁻¹. Besides, the “self-cleavage kobs at 2500 uM GlcN6P” value in the data set with glucosamine-6-phosphate [2] was < 1e-05 s⁻¹.

As for AUAAAAGCGGCAGAACUACAGAAAUGUAGUUGACGAGGAGGAGGUUUAUCGAAUCUUCGGCGUAUGUCACCAAA, the “self-cleavage kobs at 160 uM GlcN6P” value in the data set with glucosamine-6-phosphate [1] was < 1e-05 s⁻¹. As for AUAAAAGCGCCAGAGCUACAGAAAUGUAGUUGACGAGGGGGAGGUUUAUCGAAUAUUUGGCGGAUGCCUCCAAA, the “self-cleavage kobs at 160 uM GlcN6P” value in the data set with glucosamine-6-phosphate [1] was < 1e-05 s⁻¹. The same measure, in the same setting: the result for AUAAAAGCGCCAGACCUACAGAAAUGUAGUUGACGAGGAGGAGGCUUAUCGAAUUUGUGGGGGAUGCCUCCAAA reads < 1e-05 s⁻¹. Take AUAAAAGCGCGAGAACUACAGAAAUGUAGUUGUCGAGGAGGAGGUUUAUCGAAUUUUCGGCGGAUGCCUCCAAA: the “self-cleavage kobs at 160 uM GlcN6P” value with glucosamine-6-phosphate [1] is < 1e-05 s⁻¹. The “self-cleavage kobs at 2500 uM GlcN6P” value in the data set with glucosamine-6-phosphate [2] is < 1e-05 s⁻¹. In the case of AUAAAAGCGGCAGUACUACAGAAAUGUAGUUGACGAGGAGGUGGUUUAUCGAAUUUUCGCCGGAUGGCUCCAAA, the “self-cleavage kobs at 160 uM GlcN6P” value with glucosamine-6-phosphate [1] is < 1e-05 s⁻¹. Take AUAAAAGCGCGAGAACUACAGAAAUGUAGUCGACGAGGAGGAGAUUUAUCGAAUUUUCGGCGGAUGCCUCCAAA: in the data set with glucosamine-6-phosphate [1], the “self-cleavage kobs at 160 uM GlcN6P” value was < 1e-05 s⁻¹. In addition, the “self-cleavage kobs at 2500 uM GlcN6P” value in the data set with glucosamine-6-phosphate [2] is < 1e-05 s⁻¹.

Regarding AUAAAAGCGCAAGAACUACAGAAAUGUAGUUGACGAGGAGGAGGUUUAUCGAAUUUUCGGCGUAUGCCUCCAAA, in the data set with glucosamine-6-phosphate [1], the “self-cleavage kobs at 160 uM GlcN6P” value was < 1e-05 s⁻¹. Moreover, the “self-cleavage kobs at 2500 uM GlcN6P” value with glucosamine-6-phosphate [2] was < 1e-05 s⁻¹. Moreover, in the data set with glucosamine-6-phosphate [3], the “self-cleavage kobs at 10000 uM GlcN6P” value was < 1e-05 s⁻¹. With AUAAAAGCGCCGAAACUACAGAAAUGUAGUUGACGAGGAGGAGGCUUACAGCUUUUUCGGCGGAUUCCUCCAAA, the “self-cleavage kobs at 160 uM GlcN6P” value with glucosamine-6-phosphate [1] is < 1e-05 s⁻¹. For the same variant, the “self-cleavage kobs at 2500 uM GlcN6P” value with glucosamine-6-phosphate [2] was < 1e-05 s⁻¹.
